These results are taken from ChEMBL document CHEMBL4888484, “Replenishing the malaria drug discovery pipeline: Screening and hit evaluation of the MMV Hit Generation Library 1 (HGL1) against asexual blood stage Plasmodium falciparum ,using a nano luciferase reporter read-out” (2022).

Structures are written as SMILES. Screen size: about 150,000 compounds; about 540 (0.36%) showed an effect of 50% or more. This is one part of the list.

The assay concerns Plasmodium falciparum. The assay is described as follows: Primary screen in NF54 nanoGlo assay, in single point, at 2uM, 72h; a lower Z score goes with more inhibition. The class given is functional, Erythrocyte. To be noted: timepoint 72 hour.
In general, % Inhibition refers to the change of the read-out against control, counted positive when it falls. For `Cc1ccc(CS(=O)(=O)N2CC3(C[C@H](N4CCCCC4)CO3)C2)cc1`, the “% Inhibition” value was -9% and the Z score is given as 1.4.
The like results for `COc1cc(CN2C[C@H]3C[C@H](O)[C@@H](O)C[C@H]3C2)ccc1OCC=C(C)C` were, in that order, -18% and 2.06.
Taken in the same sequence, the figures for `Cc1[nH]c2c(c1C(=O)NCCc1nc3ccccc3o1)C(=O)CCC2` were -25% and 4.62.
The like results for `COc1nccc(N(C)C)c1NC(=O)c1cnc(C(C)C)s1` were, in that order, -9% and 0.72.
Consider `Clc1cnc(NCCCOC2CCCC2)nc1`, for which the “% Inhibition” value was -3% and the Z score amounted to 0.48.
Taken in the same sequence, the figures for `CC(C)CCN1CC(O)=C(c2nc(-c3ccccc3)cs2)C1=N` were 2% and -0.25.
Taken in the same sequence, the figures for `O=C(COc1ccccc1)NCC(=O)Nc1cccc2ccccc12` were 6% and -1.09.
Taken in the same sequence, the figures for `CCOc1ccccc1NC(=O)C(=O)NCC1CCCCC1` were -10% and 2.02.
For `O=C1[C@@H](NS(=O)(=O)c2ccc3c(c2)OCCCO3)CCCN1CCO`, the “% Inhibition” value is listed as -8% and the Z score turned out to be 0.89.
For `Cc1cnc(NCc2ccc3c(c2)OCCO3)cn1`, the “% Inhibition” value amounted to 0% and the Z score is listed as 0.09.
The like results for `O=C(NCc1ccnc2ccccc12)[C@H]1CC1(Cl)Cl` were, in that order, -10% and 1.13.
Taken in the same sequence, the figures for `O[C@H]1CN(c2ccc(C(F)(F)F)cn2)CC[C@@H]1Nc1ncccn1` were -16% and 1.76.
The like results for `CCN(Cc1cnn(C)c1)c1cc(N2CCN(C)C(=O)C2)ncn1` were, in that order, -2% and 0.25.
For `Cc1cccc(C)c1NC(=O)CN(CCOc1ccccc1Cl)CC(=O)Nc1c(C)cccc1C`, the “% Inhibition” value is recorded as -15% and the Z score amounted to 1.3.
For `O=C(CN1CCCC[C@@H]1CN1CCCC1=O)NCC1CCCCC1`, the “% Inhibition” value worked out at 1% and the Z score was -0.05.
As for `CCCN1C(=O)N[C@@H](Cc2ncnn2-c2cccnc2)C1=O`, the “% Inhibition” value was -6% and the Z score worked out at 0.83.
Taken in the same sequence, the figures for `CC[C@H](O)Cn1nc(CC(N)=O)nc1-c1ccccc1Oc1ccccc1` were -6% and 1.19.
The like results for `CCn1ccc(C(=O)N[C@H]2CCN(Cc3ccccc3)C2)cc1=O` were, in that order, 3% and -0.42.
`NC(=O)c1ccc(NCc2ccc(Cn3ccnc3)cc2)nn1`: the “% Inhibition” value is recorded as -3% and the Z score worked out at 0.26.
Taken in the same sequence, the figures for `CC(C)N1C[C@@H](C(=O)NC2Cc3ccccc3C2)CC1=O` were -16% and 1.52.
Consider `Cc1ccc(CC(=O)N2CCC[C@H](N3CCCS3(=O)=O)C2)cn1`, for which the “% Inhibition” value is given as -9% and the Z score turned out to be 1.26.
In the case of `CCN(C(=O)c1coc(C)c1)C1CN(C(=O)c2coc(C)c2)C1`, the “% Inhibition” value was -2% and the Z score is given as 0.36.
Taken in the same sequence, the figures for `CCN(CCC#N)C(=O)CCc1ccc(Cl)cc1` were -12% and 1.58.
With `CC[C@H](C)NC(=O)N1CCOc2ccc(CN(CC)CC)cc2C1`, the “% Inhibition” value is -13% and the Z score came to 1.43.
Taken in the same sequence, the figures for `CC(C)Oc1cccc(CC(=O)N(CC#N)CC#N)c1` were 4% and -0.82.
For `COc1cccc2c1Oc1ccccc1N=C2N1CCCN(C(=O)CC(C)(C)C)CC1`, the “% Inhibition” value came to 4% and the Z score is listed as -0.51.
The like results for `Cc1cc(C)n(CCCNCc2cccc(C#N)c2)n1` were, in that order, -2% and 0.31.
For `Cc1noc(C2CN(C(=O)[C@@H]3CCCN3Cc3ccc(F)cc3)C2)n1`, the “% Inhibition” value is given as -2% and the Z score came out at 0.22.
The like results for `Nc1nc2c(c(N3CCN(Cc4ccco4)[C@@H](CCO)C3)n1)CCNC2` were, in that order, -6% and 0.56.
Taken in the same sequence, the figures for `CCOC(=O)Cc1cnc(NC(=O)N2CCOC[C@H]2c2ccnn2C)s1` were 2% and -0.2.
Take `CC(C)N1C[C@@]2(CCCN(c3nc(-c4ccccc4)no3)C2)CCC1=O`: the “% Inhibition” value was 8% and the Z score is listed as -1.38.
The like results for `NS(=O)(=O)c1cccc(NC(=O)N(Cc2cccnc2)C2CCCCC2)c1` were, in that order, -4% and 0.57.
The like results for `Cc1cc(=O)c(C(=O)N2CCC(C(=O)Nc3ccc4c(c3)OCO4)CC2)nn1-c1ccccc1` were, in that order, 21% and -2.43.
As to `C[C@H](NCCc1cnn(C)c1)c1ccc(S(C)(=O)=O)c(F)c1`, the “% Inhibition” value is reported as -9% and the Z score was found to be 1.34.
The like results for `COCCN1C(=O)CC[C@]2(CNC(=O)c3cccnc3C)CCC[C@@H]12` were, in that order, -12% and 1.64.
The like results for `CCN(C(C)=O)c1ccc(Oc2nc(OC)cc(OC)n2)cc1` were, in that order, -7% and 1.36.
For `Cc1n[nH]c(C)c1CCNC(=O)CCC(F)(F)F`, the “% Inhibition” value is given as -9% and the Z score was found to be 0.86.
Taken in the same sequence, the figures for `COc1ccccc1N1CCN(CC(=O)Nc2nnc(C)s2)C1=O` were -1% and 0.18.
Taken in the same sequence, the figures for `COCCO[C@H]1[C@H](NC(=O)C(C)(C)C)c2ccccc2C12CCNCC2` were -12% and 1.57.
The like results for `Cn1c(=O)c2ncc(OCC(=O)c3ccccc3)nc2n(C)c1=O` were, in that order, 11% and -1.26.
Consider `O=C(NC[C@H]1C[C@@H]1C(F)(F)F)c1cncnc1-c1ccccc1`, for which the “% Inhibition” value is -2% and the Z score worked out at 0.41.
Turning to `Cc1ccccc1Nc1nc(-c2cnc(N3CCC(C)CC3)nc2C)cc(=O)[nH]1`, the “% Inhibition” value is on record as -8% and the Z score was 1.39.
The like results for `C[C@H]1c2ccsc2CCN1C(=O)C1CCCC1` were, in that order, -7% and 1.02.
Taken in the same sequence, the figures for `O=C(Nc1cccc2ncccc12)c1ccc(OC2CCOCC2)nc1` were 0% and 0.08.
Turning to `Cc1nc2c(c(N3C[C@H]4CN(C(=O)COC5CCCC5)C[C@@]4(C)C3)n1)CCCC2`, the “% Inhibition” value is on record as -1% and the Z score is 0.15.
For the compound `CCn1cc(C(=O)Nc2cnn(CC)c2C(=O)N2CCOCC2)cn1`, the “% Inhibition” value is 2% and the Z score is -0.24.
As for `CN(C(=O)c1coc2c1C(=O)NCC(C)(C)C2)C1(C(F)(F)F)CC1`, the “% Inhibition” value is given as 0% and the Z score is on record as 0.01.
Taken in the same sequence, the figures for `O=C(NC1CCCCC1C(F)(F)F)c1cc[n+]([O-])cc1` (stereo not drawn) were 4% and -0.66.
In the case of `Cc1ccnc(NS(=O)(=O)c2cc(C(=O)N3CCCCCC3)cs2)c1`, the “% Inhibition” value was found to be 4% and the Z score was -0.49.
Taken in the same sequence, the figures for `C[C@@H](Cn1cnc(-c2ccccc2)c1-c1cnc(N)nc1)c1ccccc1` were -4% and 0.47.
Regarding `CCO[C@@H](C)c1nc(Cn2c(C)nn(C(C)C)c2=O)cs1`, the “% Inhibition” value was -17% and the Z score was determined as 2.47.
For `CCCCOc1ccc(C(=O)N2C[C@H](C(=O)NC)C3(CCCC3)C2)cc1`, the “% Inhibition” value is given as -5% and the Z score was 0.6.
Taken in the same sequence, the figures for `Nc1nc(-c2ccccc2Cl)nn1C(=O)c1cccs1` were -8% and 1.25.
Taken in the same sequence, the figures for `Cn1ccnc1C(=O)N[C@H]1CCCN(C(=O)c2cccs2)C1` were -16% and 1.91.
